# In PubChem BioAssay AID1030 (National Center for Advancing Translational Sciences (NCATS), 2008):
# Screen size: about 220,000 compounds; about 16,000 (7.3%) were called active. The inconclusive results got no clear call from the source; some entries with a clear call stand among them for comparison. Calls come from the whole dose curve; as a rule, active = well fitted inhibition curve with a large enough effect (not every such curve was filed as active); inconclusive = small, poorly fitted or top-dose-only effect, or another doubt; inactive = no such curve, though single readings can be large or run the other way. Potencies of inconclusive entries are left out as doubtful fits.
# Target: Aldehyde dehydrogenase 1A1 (Homo sapiens) (UniProt P00352)
# UniProt P00352, sequence (P00352 whole entry, looked up): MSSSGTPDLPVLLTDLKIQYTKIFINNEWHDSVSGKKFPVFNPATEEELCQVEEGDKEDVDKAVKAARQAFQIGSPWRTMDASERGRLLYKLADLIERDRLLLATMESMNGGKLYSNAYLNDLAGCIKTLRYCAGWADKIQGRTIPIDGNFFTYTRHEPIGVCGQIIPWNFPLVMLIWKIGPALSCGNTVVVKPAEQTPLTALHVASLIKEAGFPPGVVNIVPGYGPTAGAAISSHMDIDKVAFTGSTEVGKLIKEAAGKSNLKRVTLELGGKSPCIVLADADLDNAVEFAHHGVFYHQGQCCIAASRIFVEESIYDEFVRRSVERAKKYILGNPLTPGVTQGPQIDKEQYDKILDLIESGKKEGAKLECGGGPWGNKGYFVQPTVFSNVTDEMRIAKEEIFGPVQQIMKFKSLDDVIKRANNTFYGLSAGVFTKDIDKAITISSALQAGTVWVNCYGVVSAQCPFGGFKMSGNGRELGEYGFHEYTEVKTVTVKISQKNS
# Test: qHTS Assay for Inhibitors of Aldehyde Dehydrogenase 1 (ALDH1A1)
# Details: Purified ALDH1A1, NADH fluorescence, propionaldehyde substrate; series mostly up to 75.3 µM
# Potency is the fitted concentration of half-maximal effect; tags give direction and shape of the fitted curve.
row,Compound,Potency
1,C=CCn1c(SCC(=O)Nc2ccc(-c3nc4ccc(C)cc4s3)cc2)nnc1-c1ccncc1,"inconclusive [inhibitor, partial curve]"
2,CCOCCCNCC(=O)Nc1ccccc1N1CCOCC1,"inconclusive [inhibitor, single point]"
3,Nc1nc(NCC2CCCO2)nc(NCC2CCCO2)c1[N+](=O)[O-] (stereo unspecified),"inconclusive [inhibitor, single point]"
4,Cc1ccc(C(=O)N(CC#N)CC#N)cc1C,inactive
5,COC(=O)c1nnn(-c2nonc2N)c1COc1ccc(C=O)cc1OC,"inconclusive [inhibitor, single point]"
6,COc1ccc(N2C(=O)CSC(c3ccccc3)C2=O)cc1 (stereo unspecified),"inconclusive [inhibitor, single point]"
7,O=C(Oc1cc2oc(=O)c3c(c2cc1Cl)CCCC3)c1ccco1,"inconclusive [inhibitor, partial curve]"
8,COc1ccc(-c2nnc(SCc3cc(C)ccc3C)n2N)cc1,active: 22.4 µM
9,Cc1cc(NC(=O)CSc2ccc3nnc(-c4cccnc4)n3n2)no1,"inconclusive [inhibitor, single point]"
10,CCCNC(=O)CCNC(=O)c1ccc(C(C)(C)C)cc1,inactive
11,COC(=O)CSc1ncnc2c1sc1nc(-c3ccco3)c3c(c12)CC(C)(C)OC3,"inconclusive [inhibitor, full curve]"
12,Cc1cccc(NC(=O)C(C)OC(=O)c2ccccc2NS(=O)(=O)c2cc(C)c(C)c([N+](=O)[O-])c2)c1 (stereo unspecified),inactive
13,C=C(C)CNC(=S)Nc1cccc(N)n1,"inconclusive [inhibitor, partial curve, poor fit]"
14,CC1=NN(C(=O)c2ccc(Br)cc2)C(O)(c2ccccc2)C1 (stereo unspecified),inactive
15,CC(C)C(C)NC(=O)CSc1nc2scc(-c3ccco3)c2c(=O)n1-c1ccccc1 (stereo unspecified),active: 7.94 µM
16,CC(=O)Nc1ccc(NC(=S)Nc2ccccc2)cc1,inactive
17,CCCCn1c(N)c(NCc2ccccc2)c(=O)[nH]c1=O,"inconclusive [inhibitor, single point]"
18,CCc1nc(SCC(=O)N2c3ccccc3Sc3ccccc32)c2ccccc2n1,"inconclusive [inhibitor, single point]"
19,CCn1c(O)c(N=NC2=NC(=O)CS2)c2ccccc21,active: 11.2 µM
20,Cc1ccc(C#N)c(SCc2ccccc2[N+](=O)[O-])n1,"inconclusive [inhibitor, single point]"
21,Cn1cc2cc([N+](=O)[O-])ccc2n1,inactive
22,COc1ccc(/C=C(\C#N)C(=O)OCC(=O)Nc2ccc(C(C)(C)C)cc2)cc1,active: 22.4 µM
23,COc1ccc(OC)c(NC(=O)c2ccc(NC(C)=O)cc2)c1,"inconclusive [inhibitor, single point]"
24,COc1ccc(C(=O)c2cnc(/N=C/N(C)C)s2)cc1,"inconclusive [inhibitor, partial curve]"
25,CCN=c1scc(-c2cccs2)n1/N=C/c1cc(OC)ccc1O,"inconclusive [inhibitor, single point]"
26,COc1ccc(CN(C(=O)CSc2nnc(-c3ccc(F)cc3)o2)c2ccc(F)cc2)cc1,"inconclusive [inhibitor, single point]"

row,Compound,Potency
1,Cc1nn2c(-n3ccnc3)c3c(nc2c1-c1ccccc1)CCC3,"inconclusive [inhibitor, single point]"
2,COc1ccccc1CNCc1cc(OC)c(OC)c(OC)c1,inactive
3,COc1ccc(-c2nc3cnccn3c2NC(C)(C)CC(C)(C)C)cc1O,"inconclusive [inhibitor, partial curve]"
4,CC(=O)c1ccc(NC(=O)CSc2nc(C)cc(C)c2C(N)=O)cc1,inactive
5,COc1ccc(N=C2CCS(=O)(=O)c3sccc32)cc1,active: 10 µM
6,CCn1c(SCc2cccc(C(=O)O)c2)nnc1-c1ccccc1,inactive
7,O=C1C(Cl)=C(Nc2ccccc2)C(=O)c2ccccc21,inactive
8,CN1CCC(Oc2ccccc2Sc2ccc(C(F)(F)F)cc2)CC1,"inconclusive [inhibitor, partial curve]"
9,Cc1[nH]c2ccccc2c1/C=N/Nc1nc(Nc2ccccc2)nc(N2CCOCC2)n1,inactive
10,CCOC(=O)N1CCN(C(=O)CSCC(=O)Nc2nc(-c3ccc(OC)cc3)cs2)CC1,inactive
11,NS(=O)(=O)c1cccc(-n2cnnn2)c1,inactive
12,COc1ccc(-c2sc(NC(C)=O)nc2-c2ccccc2)cc1,"inconclusive [inhibitor, single point]"
13,O=C(N/N=C\CCc1ccccc1)c1ccco1,inactive
14,O=c1cc(N2CCN(c3ccccc3)CC2)[nH]c(=O)n1-c1ccccc1Cl,"inconclusive [inhibitor, partial curve]"
15,CC(C)(C)NC(=O)CSC(=Nc1ccccc1F)NC#N,active: 1.26 µM
16,Cc1ccsc1/C=N/N1CCN(Cc2ccccc2)CC1,active: 15.8 µM
17,Cc1ccc(NC(=O)C2CCN(S(=O)(=O)c3cccc4nonc34)CC2)nc1,"inconclusive [inhibitor, single point]"
18,CN=C(NC#N)NCCSC[C@H]1N=CN=C1C,inactive
19,COc1ccccc1N1CCN(C2CC(=O)N(C)C2=O)CC1 (stereo unspecified),inactive
20,Cc1ccc(N2C(=O)c3sc4nnc(C)c(=O)n4c3C2=O)cc1,active: 17.8 µM
21,Cn1c(=O)[nH]c(=O)c2c1nc(Br)n2CCCSc1nc2ccccc2o1,"inconclusive [inhibitor, single point]"
22,O=c1/c(=C/c2ccco2)sc2n1CN(c1ccccc1)CN=2,inactive
23,COc1ccc(C2CC(c3c(-c4ccccc4)c4cc(Cl)ccc4[nH]c3=O)=NN2C(=O)CCC(=O)O)cc1 (stereo unspecified),"inconclusive [inhibitor, partial curve]"
24,C#CCOCCOCCOCCNc1nc(N2CCN(C(=O)[C@H]([C@@H](C)CC)n3cc([C@@H](N)CO)nn3)CC2)nc(N2CCN(C(=O)[C@H]([C@@H](C)CC)n3cc([C@@H](N)CC(C)C)nn3)CC2)n1,"inconclusive [inhibitor, single point]"
25,CCc1ccccc1NC(=O)CSc1nnc([C@@H](NC(=O)OC(C)(C)C)C(C)C)o1,"inconclusive [inhibitor, single point]"
26,CC1(C)COC(/C=C/c2cccc([N+](=O)[O-])c2)=N1,active: 14.1 µM

row,Compound,Potency
1,CCn1c(SCC(N)=O)nnc1-c1ccc2c(c1)OCO2,inactive
2,CCn1c2ccccc2c2cc(/C=N/NC(=O)c3ccccc3)ccc21,"inconclusive [inhibitor, single point]"
3,CCC1(C)Cc2[nH]c(=O)c(C#N)cc2CO1 (stereo unspecified),"inconclusive [inhibitor, partial curve]"
4,O=C1NCCn2ccc(=O)cc21,"inconclusive [inhibitor, single point]"
5,COC(=O)C1=C(NC(=O)COc2ccc3ccccc3c2)CCS1,"inconclusive [inhibitor, single point]"
6,CC(C)c1nc(NCCN2CCOCC2)c(C#N)c2c1COC(C)(C)C2,"inconclusive [inhibitor, partial curve]"
7,CCOc1cc2c3c(c1)C1(OCCO1)C(=O)N3C(C)(C)CC2C (stereo unspecified),"inconclusive [inhibitor, partial curve]"
8,Cc1c(C(=O)C(=O)NCc2ccco2)c2ccccc2n1C,inactive
9,Cc1cccc(C)c1NC(=O)C(Cl)=C(Cl)Cl,"inconclusive [inhibitor, single point]"
10,CC1CC[C@@]2(C(=O)O)CC[C@]3(C)C(=CCC4[C@@]5(C)CCC(O)C(C)(C)C5CC[C@@]43C)C2C1C (stereo partly specified),inactive
11,C/C(N)=C(/C#N)C(=O)CSc1nn(-c2ccc(Cl)cc2)c(=S)s1,inactive
12,CCOC(=O)c1sc(NC(=O)CSc2nnc(-c3ccco3)n2CC)c(C(=O)OCC)c1C,"inconclusive [inhibitor, single point]"
13,C=CCn1c(SCC(=O)C23CC4CC(CC(C4)C2)C3)nc(O)cc1=O,"inconclusive [inhibitor, partial curve]"
14,CC(C)(C)NC(=O)C(c1cccs1)N(CC1CCCO1)C(=O)Cn1nnc(-c2cccs2)n1 (stereo unspecified),"inconclusive [inhibitor, single point]"
15,Cc1[nH]c(=O)[nH]c(=O)c1CSCC(=O)OCC(=O)c1ccc(Br)cc1,inactive
16,Cc1ccc(S(=O)(=O)N2CCOCC2)cc1NC(=O)COC(=O)c1cc(=O)[nH]c2ccccc12,"inconclusive [inhibitor, single point]"
17,Cc1cc(C)c(S(=O)(=O)NCC(=O)NCc2ccco2)c(C)c1,inactive
18,CCOc1cc(CNCc2cccnc2)ccc1OCC(=O)NC(C)(C)C,inactive
19,CN(C)c1cccc2c1C(=O)c1ccccc1C2=O,"inconclusive [inhibitor, single point]"
20,Cc1cccc(OCC(=O)NC(=S)N2CCCc3ccccc32)c1,"inconclusive [inhibitor, single point]"
21,CC(C)OC(=O)CSc1nnc(-c2cccnc2)n1N,inactive
22,CCOc1cc(/C=N/n2cnnc2)ccc1OS(=O)(=O)c1ccc(C)cc1,active: 22.4 µM
23,CCNC(=S)N1CCN(c2ccc([N+](=O)[O-])cc2)CC1,active: 3.16 µM
24,O=c1[nH]c2ccccc2c(O)c1O,active: 0.562 µM
